From PubChem BioAssay AID493208 (National Center for Advancing Translational Sciences (NCATS), 2011)
In all, about 44,000 compounds went through this assay and about 340 (0.77%) were called active. Inconclusive results (about 5%) are left out. The call rests on the fitted dose curve; in most records, active means well fitted inhibition curve with a large enough effect; inconclusive means small, poorly fitted or top-dose-only effect; inactive means flat fitted curve, though single readings scatter. The list shows a part of the results.

Assay: Acumen qHTS Assay for Inhibitors of the mTORC1 Signaling Pathway in MEF (Tsc2-/-, p53-/-) Cells: Sytravon;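 further: plate controls were DMSO for no effect and rapamycin for full effect; nearly all actives have a fitted effect of over 50% in size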
Details: phospho-rpS6 immunofluorescence/PI, 24 h; series mostly up to 38.3 µM; activity change, negative = inhibition: at the top concentration
How it was run: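 Read-out: phospho-S6 Alexa-488 intensity over PI intensity per well, scored as % active cells using thresholds from rapamycin (7.5 nM) and DMSO controls. Tsc2-/-, p53-/- MEFs exposed to compound for 24 h; PI cell count recorded as viability.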

| Compound | activity change, negative = inhibition |
| --- | --- |
| Cc1ccc(N(CC(=O)Nc2cccc(Cl)c2)S(=O)(=O)c2cccs2)cc1 | inactive: -5.65% |
| CCN(Cc1ccccc1)S(=O)(=O)c1ccc2c(c1)CC(C)N2C(=O)C1CCC1 (stereo not drawn) | inactive: 0.658% |
| O=c1c2oc3ccccc3c2n(Cc2ccccc2F)c(=O)n1Cc1ccccc1 | inactive: -0.847% |
| Cc1ccc2onc(CC(=O)Nc3ccc(C(C)C)cc3)c2c1 | inactive: -0.388% |
| Cc1ccc2c(c1)N(CCC(=O)NCc1ccccc1Cl)C(=O)CO2 | inactive: -1.33% |
| COc1cccc(CNC(=O)c2cc3c(=O)oc4ccc(C)cc4c3s2)c1 | inactive: 1.87% |
| COc1ccc(-c2nnc(SCc3cccc(Cl)c3)o2)cc1 | inactive: 5.98% |
| CC(=O)N1CCC(N(Cc2ccc(C)o2)C(=O)Nc2ccc(C)cc2)CC1 | inactive: 0.283% |
| Cn1c(=O)[nH]c(=O)c2c1nc(NCCc1ccccc1)n2Cc1ccc(F)cc1 | inactive: -12.8% |
| COc1ccc(NC(=O)c2c(NC(=O)c3ccc(Br)cc3)sc3c2CCCC3)cc1 | inactive: 12.4% |
| Cc1cc(NC(=O)Nc2nnc(N(C)Cc3ccccc3)s2)ccc1Br | inactive: -5.29% |
| Cn1cc(S(=O)(=O)N2CCOCC2)cc1C(=O)Nc1ccc(Cl)c(C(F)(F)F)c1 | inactive: 8.46% |
| CCOc1ccc2nc(NC(=O)c3nc(SC)ncc3Cl)sc2c1 | inactive: -3.71% |
| CCOc1ccccc1NC(=O)Cc1noc2ccc(C)cc12 | inactive: -4.42% |
| Cn1cnc2c(=O)oc3ccc(S(=O)(=O)Nc4ccc(F)cc4)cc3c21 | inactive: -10.6% |
| CCOc1ccc(CNS(=O)(=O)c2ccc(-c3coc(C)n3)cc2)cc1 | inactive: -7.88% |
| COc1ccc(N2CCN(CCCNC(=O)Cn3c(-c4cccs4)cc4ccccc43)CC2)cc1 | inactive: 0.0836% |
| CC1(C)C(=O)N(CC(=O)Nc2ccc(Br)cc2F)c2ccccc21 | inactive: -2.32% |
| COc1cccc(C2C(C(=O)Nc3ccc(C)cc3C)=C(C)Nc3nc4ccccc4n32)c1OC (stereo not drawn) | inactive: -19.3% |
| COc1ccc2nc(N(Cc3cccnc3)C(=O)C3CCCCC3)sc2c1 | inactive: -5.69% |
| Cc1nc2ccc(S(=O)(=O)N(C)CC(=O)Nc3cccc(C(F)(F)F)c3)cc2s1 | inactive: -1.86% |
| CCOC(=O)c1cc(S(=O)(=O)N2CCN(c3ccccc3F)CC2)[nH]n1 | inactive: -1.96% |
| CC(NC(=O)C1CCN(c2nc3ccccc3nc2C(F)(F)F)CC1)c1ccccc1 (stereo not drawn) | inactive: 5.4% |
| CCCCN(CC)CCCNC(=O)Nc1sc2nc3n(c(=O)c2c1C)CCC(C)CC3 (stereo not drawn) | inactive: -5.5% |
| CCCCNC(=O)c1cccc(-n2c(C)nc3cccnc32)c1 | inactive: -0.198% |

| Compound | activity change, negative = inhibition |
| --- | --- |
| Fc1ccc2c(c1)-c1nc(-c3ccccc3)cc(-c3ccccc3)c1CO2 | inactive: 5.28% |
| CCOc1cc(C(=O)N2CCn3c4c(c5cc(C)ccc53)CCCC42)cc(OCC)c1OCC (stereo not drawn) | inactive: -0.586% |
| COc1ccc(N(C(=O)c2cccc(C)c2)S(=O)(=O)c2ccc(Cl)cc2)cc1 | inactive: -0.0762% |
| CC(C)CCNC(=O)c1cnc2sc(N3CCCCC3)nn2c1=O | inactive: 8.02% |
| Cc1c(NC(=O)Nc2ccccc2C(F)(F)F)sc2nc3n(c(=O)c12)CCC(C)CC3 (stereo not drawn) | inactive: -2.62% |
| COc1ccc(CCCc2nnc(SCC(=O)Nc3ccc(C)cc3)o2)cc1 | inactive: -5.62% |
| Cc1cccn2c(=O)c(/C=C(\C#N)c3nc4ccccc4[nH]3)c(Oc3ccc(C(C)(C)C)cc3)nc12 | inactive: -19% |
| CCOc1ccc(-c2ccc(NS(=O)(=O)c3ccc(C)cc3)cc2)nn1 | inactive: 1.42% |
| O=C(CCc1nc(-c2cccs2)no1)Nc1cccc([N+](=O)[O-])c1 | inactive: 0.269% |
| Cc1ccc(C)c(N2CCN(C(c3ccccc3)c3nnc(-c4ccccc4F)o3)CC2)c1 (stereo not drawn) | inactive: -27.7% |
| Cc1ccc(OCC(=O)OCc2cc(=O)n3nc(-c4cccs4)sc3n2)cc1C | inactive: -6.53% |
| Cc1ccc(-c2nc3n(n2)C(=O)CC(c2ccc(Cl)cc2)S3)cc1 (stereo not drawn) | inactive: -0.848% |
| Cc1cc(C)c(NC(=O)Cn2c(=O)n(-c3ccc(CC(=O)NCC4CCCO4)cc3)c(=O)c3ccccc32)c(C)c1 (stereo not drawn) | inactive: 3.07% |
| Cc1ccc(C(=O)Nc2sc3c(c2C(=O)NCc2ccco2)CCC(C(C)(C)C)C3)cc1 (stereo not drawn) | inactive: -20.9% |
| O=C(NCc1ccc(F)cc1)c1cc2n(n1)CCCN(Cc1ccc(F)cc1)C2=O | inactive: -10.4% |
| Cc1ccsc1CN(C(=O)COc1ccc(Br)cc1)C1CCS(=O)(=O)C1 (stereo not drawn) | inactive: 0.235% |
| Cc1ccc(OCC(=O)Nc2cc3nn(-c4ccccc4)nc3cc2C)cc1 | inactive: 2.78% |
| CCOc1ccc(Sc2cc(C(=O)NC(C)c3ccccc3)c3ccccc3n2)cc1 (stereo not drawn) | inactive: 6.57% |
| Cc1cc(Cl)ccc1NC(=O)C(=O)NCc1ccco1 | inactive: 18.4% |
| COc1ccc2c(CNCc3cccs3)c(C(=O)O)n(Cc3ccccc3)c2c1 | inactive: -1.38% |
| Cc1c(CCNC(=O)c2ccc(Br)o2)sc2nc(-c3ccc(F)cc3)nn12 | inactive: 1.12% |
| COc1ccc(NC(=O)Cn2c(SCc3cc(C)ccc3C)nc3ccncc32)c(OC)c1OC | inactive: -0.225% |
| CCOc1ccccc1NC(=O)Cn1cc(C(=O)c2cccc(OC)c2)c(=O)c2ccc(C)nc21 | inactive: 2.21% |
| O=C(Cn1c(=O)c2cccn2c2ccccc21)NCCc1ccccc1 | inactive: 7.91% |
| Cc1ccc2nc(NC(=O)COc3ccc(F)cc3)sc2c1 | inactive: -0.0302% |

| Compound | activity change, negative = inhibition |
| --- | --- |
| CCOc1ccccc1C(=O)Nc1ccc(S(=O)(=O)Nc2nc(C)cc(C)n2)cc1 | inactive: -2.8% |
| CCc1cccc(NC(=O)CSC2=Nc3ccccc3N=C(c3ccc(F)cc3)C2)c1 | inactive: -17.8% |
| COc1cc(NC(=O)CN(c2ccc(C)cc2)S(=O)(=O)c2cccc3nonc23)cc(OC)c1 | inactive: 1.16% |
| CCN1CCN(c2nc3c(S(=O)(=O)c4ccc(Br)cc4)nnn3c3ccsc23)CC1 | inactive: -3.71% |
| Cc1ccc(NC(=O)Cn2cnc3sc(C(=O)O)c(C)c3c2=O)cc1Cl | inactive: 1.83% |
| O=C(CSc1nnc(CNC(=O)c2cccc(F)c2)n1-c1ccccc1)Nc1ccccc1F | inactive: 1.46% |
| Fc1ccc(-c2noc3ncnc(NCCc4ccccc4)c23)cc1 | inactive: -4.44% |
| CCOc1ccc(-c2nonc2NC(=O)COc2c(C)cc(C)cc2C)cc1OCC | inactive: -10.7% |
| COc1ccc(Nc2nc(-c3ccc(C)cc3)nc3ccccc23)c(OC)c1 | inactive: 7.27% |
| CCCCCn1c(C(C)NC(=O)c2ccccc2)nc2ccccc21 (stereo not drawn) | inactive: 4.07% |
| COc1ccc2c(c1)c1c(c(=O)n(Cc3ccccc3)c(=O)n1CC(=O)NCc1ccccc1Cl)n2C | inactive: -14.6% |
| CCOc1cc(CNC(=O)C2COc3ccccc3C2)cc(OCC)c1OCC (stereo not drawn) | inactive: -0.892% |
| CCc1nn(CC(=O)NCCc2ccc(OC)cc2OC)c(=O)c2cc3c(OC)cccc3n12 | inactive: 1.02% |
| COc1ccc(CCn2cc3c(c2-c2ccc(Br)cc2)c(=O)n(C)c(=O)n3C)cc1OC | inactive: 3.91% |
| Cc1ccc(C(C)C)c(OCC(=O)NCC2(N(C)C)CCCCC2)c1 | inactive: -9.43% |
| Cc1ccccc1C(=O)n1nc(-c2ccco2)nc1NCc1ccc(Cl)cc1 | inactive: -6.57% |
| Cc1ccccc1N1CC(c2nc3ccccc3n2CCC2CCCCC2)CC1=O (stereo not drawn) | inactive: 1.41% |
| COc1ccc(CNC(=O)CCn2cccn2)cc1 | inactive: -16.8% |
| COc1ccc(-c2nc(C)c(CCNC(=O)C(=O)Nc3ccccc3OC)s2)cc1 | inactive: 0.618% |
| O=C(NCCc1ccccc1Cl)c1ccc(Cn2c(=O)c3cccn3c3cccnc32)cc1 | inactive: 4.53% |
| O=C(COc1ccc(Cl)cc1)Nc1ccc(-c2nc3ccccc3s2)c(O)c1 | inactive: 3.05% |
| Cc1ccc(-c2nnc(SCc3ccccc3C)o2)cc1 | inactive: 2.16% |
| CCc1ccccc1NC(=O)c1c(NC(=O)c2ccccc2)sc2c1CCCC2 | inactive: -4.5% |
| CCOC(=O)C1CCC(CN(Cc2cccc(Br)c2)S(=O)(=O)c2ccc(C)cc2)CC1 (stereo not drawn) | inactive: 3.06% |
| COc1ccc(S(=O)(=O)Nc2ccc3c(c2)N(C(C)=O)CCC3)cc1F | inactive: 21.8% |

| Compound | activity change, negative = inhibition |
| --- | --- |
| COc1cc(Cl)c(NC(=O)CCS(=O)(=O)c2cc3c(cc2Cl)NC(=O)CO3)c(OC)c1 | inactive: -0.0611% |
| COc1cc(-c2cc(OC)c3c(C)oc(C)c3c(=O)c2)ccc1OC(=O)c1ccccc1Cl | inactive: 2.38% |
| COc1ccc(OC)c2sc(N3CCN(C(=O)C(C)(C)C)CC3)nc12 | inactive: 0.191% |
| Cc1ccc(-c2cc3ncc4c(n3n2)-c2cc(C)ccc2OC4)cc1 | inactive: -0.34% |
| Cc1cc(C)c2c(=O)cc(CSCC(=O)Nc3ccccc3Cl)[nH]c2c1 | inactive: 12.7% |
| CCOC(=O)C1=C(CN2CCC(C)CC2)NC(=O)NC1c1ccc(F)cc1 (stereo not drawn) | inactive: -7.9% |
| Cc1cccc(Oc2nc3c(C)cccn3c(=O)c2/C=C(\C#N)c2nc3ccccc3[nH]2)c1 | inactive: -3.39% |
| Cc1ccc2nc(N3CCN(c4cccc(Cl)c4)CC3)c(-n3nc(C)cc3C)nc2c1 | inactive: -1.23% |
| COc1ccccc1CNC(=O)C1CCC(CNS(=O)(=O)c2ccc3c(c2)CCCC(=O)N3)CC1 (stereo not drawn) | inactive: -5.76% |
| Cc1ccc(N2C(=O)CSC23C(=O)N(CC(=O)NCc2ccccc2)c2ccccc23)cc1C (stereo not drawn) | inactive: 1.14% |
| CNC(=O)c1c(NC(=O)c2ccc(S(=O)(=O)N3CCC(C)CC3)cc2)sc2c1CCC2 | inactive: -4.15% |
| Cc1cccc(C)c1OCC(=O)NCC1(N(C)C)CCCCC1 | inactive: -2.59% |
| COc1ccc(CNC(=O)c2ccc(N3CCCC3)c(NC(=O)NCc3ccc(F)cc3)c2)cc1 | inactive: 20% |
| COc1ccc(CNS(=O)(=O)c2cnc(N)nc2)c(OC)c1 | inactive: -11.5% |
| CCN(CC)CCNC(=O)c1ccc(Cn2c(SCc3ccccc3)nc3cccnc32)cc1 | inactive: -2.97% |
| Cc1ccc2c(Sc3ccc(Cl)cc3)c(C(=O)N3CCC(C)CC3)[nH]c2c1 | inactive: 1.83% |
| CS(=O)(=O)c1ccc(-c2nnc(NC(=O)c3ccc4c(c3)OCCO4)o2)cc1 | inactive: 5.16% |
| CCC1CN(C(=O)N2CCC(C(=O)NCCN(CC)CC)CC2)c2cc(C)ccc2O1 (stereo not drawn) | inactive: -1.02% |
| CCOc1cc(CNC(=O)c2sc3ncnc(N(C)C4CCCCC4)c3c2C)ccc1OC | inactive: 0.181% |
| CC(C)Oc1ccc(CNC(=O)CCCN2C(=O)c3cccnc3Oc3ccc(Cl)cc32)cc1 | inactive: -6.33% |
| CCC(=O)N1CCc2cc(Br)cc(S(=O)(=O)Nc3ccc(C)cc3C)c21 | inactive: -5.58% |
| CCN(C(=O)c1cc2c(s1)-c1c(C)cccc1OC2)c1ccccc1F | inactive: -0.186% |
| CCc1cc(=O)oc2c3c(c(Cl)cc12)OCN(Cc1cccc(OC)c1)C3 | inactive: -9% |
